According to PubChem BioAssay AID504466 (National Center for Advancing Translational Sciences (NCATS), 2011):
The whole screen tested about 330,000 compounds, of which about 4,200 (1.3%) were called active. The inconclusive results got no clear call from the source; some entries with a clear call stand among them for comparison. The call rests on the fitted dose curve; in most records, active means well fitted activation curve with a large enough effect; inconclusive means small, poorly fitted or top-dose-only effect; inactive means no such curve, though single readings can be large or run the other way. Where the call is inconclusive, the potency comes from a doubtful curve fit.

test: qHTS screen for small molecules that induce genotoxicity in human embryonic kidney (HEK293T) cells expressing luciferase-tagged ELG1; conditions: HEK293T ELG1-luciferase reporter, luminescence, 16 h; series mostly up to 46 µM; activity change, positive = activation: at the top concentration; further: nearly all actives have a fitted effect of over 60% in size; on activity change, positive = activation: % of control where 0% means no effect
Procedure, shortened: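 Quantitative HTS format in 1536-well plates. HEK293T ELG1-luciferase reporter cells receive test compound and are incubated 16 hr at 37 °C, 5% CO2; ONE-Glo added, 30 min room temperature, then luminescence read.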
Potency means the concentration at half of the fitted maximal effect; tags describe the fitted curve by direction and shape.

SMILES	Potency	activity change, positive = activation
c1cc(-c2cc3cc4c(cc3cn2)OCO4)cs1	inconclusive: 4.61 µM [activator, partial curve]	–
O=C(NN/C(=N/S(=O)(=O)c1ccc(Cl)cc1)c1ccccc1)c1cccc(Cl)c1	active: 16.4 µM	–
N/C(=N\OC(=O)C1CCCCC1)c1ccc(Cl)cc1	inconclusive: 20.6 µM [activator, partial curve]	–
Cc1[nH]n(-c2ccccc2)c(=O)c1/C=N/Nc1nncc(-c2ccccc2)n1	inconclusive: 7.31 µM [activator, partial curve, poor fit]	–
CCN(CC)CCN1C(=O)C(=O)/C(=C(/O)c2cnn(-c3ccccc3)c2C)C1c1cccs1 (configuration not stated)	inconclusive: 18.4 µM [activator, partial curve, poor fit]	–
O=C(Nc1ccc(SC(F)F)cc1)c1ccccc1F	inconclusive: 6.51 µM [activator, partial curve]	–
CC(Cc1ccco1)NC(=O)c1ccc(C(F)(F)F)cc1 (configuration not stated)	active: 8.2 µM	–
CC(C)OC(=O)CSc1nc2ccccc2s1	inconclusive: 29.1 µM [activator, single point]	–
O=[N+]([O-])c1ccc(COc2cccc(CNc3ccc(Br)cc3)c2)cc1	–	inactive: 9.4%
CCOc1ccc(-c2nc(CSCC(=O)NCCN3CCOCC3)c(C)o2)cc1	inconclusive: 29.1 µM [activator, single point]	–
COc1ccc(-c2csc(N3CCSCC3)n2)cc1	inconclusive: 18.3 µM [activator, partial curve]	–
COc1ccc(NC(=S)N(CCc2c(C)[nH]c3ccc(C)cc23)Cc2cccs2)cc1	–	inactive: -11.2%
CCOc1ccc(OCC)c(Nc2cc(C)nc3ncnn23)c1	active: 20.6 µM	–
COC(=O)Cc1c(C)nc2nc(-c3ccc(C)cc3)[nH]n2c1=O	inconclusive: 29.1 µM [activator, single point]	–
CCCCNS(=O)(=O)c1ccc2nc(SCC(=O)Nc3ccccc3Cl)[nH]c2c1	–	inactive: -7.23%
CCCCOc1ccc(NC(=O)c2cnc(C)cn2)cc1	inconclusive: 11.2 µM [activator, partial curve, poor fit]	–
COc1cc(/C=C2/C(=N)N3N=C(CC(=O)N4CCOCC4)SC3=NC2=O)ccc1OCc1ccc(F)cc1	inconclusive: 20.6 µM [activator, single point]	–
Cc1ccc(/C=C/C(=O)Nc2ncc(C)s2)o1	inconclusive: 2.31 µM [activator, full curve]	–
CCOC(=O)c1c(C)[nH]c(C(=O)OC(C)C(=O)NCc2ccccc2)c1C (configuration not stated)	inconclusive: 29.1 µM [activator, single point]	–
CSc1ncccc1C(=O)OCC(=O)NC(C)(C)C	–	inactive: 2.23%
Cc1cnn(-c2cc(N/N=C/c3ccccc3F)ncn2)c1	inconclusive: 23.1 µM [activator, partial curve, poor fit]	–
Cc1ccc(C(=O)Nc2ccc3ccccc3n2)cc1	inconclusive: 1.64 µM [activator, partial curve]	–
O=C(NC(=S)Nc1ccccc1C(=O)O)c1ccc(-c2ccc(Br)cc2)o1	inconclusive: 5.17 µM [activator, full curve, poor fit]	–
N/C(=N\OC(=O)C1CCCCC1)c1cccc([N+](=O)[O-])c1	inconclusive: 16.4 µM [activator, partial curve, poor fit]	–

SMILES	Potency	activity change, positive = activation
Cc1ccccc1OC(=O)c1cccc(S(=O)(=O)N2CCN(C)CC2)c1	–	inactive: -0.88%
CCOC(=O)c1c(C)[nH]c(C(=O)COC(=O)C2(C)CC2(Cl)Cl)c1C (configuration not stated)	inconclusive: 4.61 µM [activator, partial curve, poor fit]	–
C=C1C(C(=O)Nc2ccc(F)cc2)C1C(=O)Nc1ccc(F)cc1 (configuration not stated)	inconclusive: 29.1 µM [activator, partial curve, poor fit]	–
COC(=O)c1c(-c2ccncc2)csc1NC(=O)c1ccoc1C	inconclusive: 16.4 µM [activator, partial curve]	–
N#Cc1c(/N=C/c2ccco2)sc2c1CCCCC2	inconclusive: 18.4 µM [activator, partial curve]	–
CCCN1CCC(CCOc2ccccc2)(C(=O)OCC)CC1	–	inactive: -0.881%
Cc1ccc(-n2c(C)cc(C(=O)COC(=O)c3ccc[nH]c3=O)c2C)cc1	inconclusive: 2.91 µM [activator, full curve]	–
COC(=O)c1c(C)[nH]c(/C=N/Nc2ccccc2)c1C	inconclusive: 20.6 µM [activator, single point]	–
NS(=O)(=O)c1ccc(S(=O)(=O)N2CCN(C3CCCC3)CC2)cc1	inconclusive: 5.8 µM [activator, partial curve, poor fit]	–
Cc1ccc2c(CN3CCC(C)CC3)cc(=O)oc2c1	active: 4.61 µM	–
O=c1[nH]c(COc2ccccc2)nc2ccccc12	inconclusive: 18.3 µM [activator, partial curve, poor fit]	–
CCOc1ccc(/C=N/n2c(C)nnc2C)cc1OC	inconclusive: 20.6 µM [activator, partial curve, poor fit]	–
CCCCCOc1ccc(CSc2ncn[nH]2)cc1	inconclusive: 20.6 µM [activator, partial curve]	–
Cc1nnc(N/N=C/c2ccc(-c3ccccc3F)o2)n1N	inconclusive: 18.3 µM [activator, partial curve, poor fit]	–
Clc1ccc2nc(CSCc3ccccc3)cn2c1	inconclusive: 3.26 µM [activator, full curve]	–
NC(=O)c1sc2nc(-c3cccs3)ccc2c1N	inconclusive: 20.6 µM [activator, single point]	–
COc1cc2cccc(OC)c(=O)c2c(O)c1OC	inconclusive: 20.6 µM [activator, single point]	–
CCC(C)(C)c1ccc(OCCCC[n+]2ccccc2)c(C(C)(C)CC)c1	–	inactive: -8.48%
COc1ccc(C(=O)Nc2ccncc2)cc1[N+](=O)[O-]	–	inactive: -2.22%
CCCCN(C)CCCNC(=O)c1cc(-c2cccnc2)nc2ccccc12	–	inactive: 0.459%
N#CC1(c2ccc(NC(=O)c3ccccc3)cc2)CCCC1	inconclusive: 1.03 µM [activator, full curve]	–
CC(=O)c1ccc(NC(=O)C2(c3ccccc3)CC2(Cl)Cl)cc1 (configuration not stated)	inconclusive: 20.6 µM [activator, partial curve, poor fit]	–
O=C(O)c1cccc(N2C(=O)C3CC=CCC3C2=O)c1 (configuration not stated)	–	inactive: 1.48%
Cc1ccc(S(=O)(=O)N2CCN(C(=O)CN3C(=O)c4ccc([N+](=O)[O-])cc4C3=O)CC2)cc1C	–	inactive: -1.9%

SMILES	Potency	activity change, positive = activation
Cc1cc(NC(=O)c2cc3ncc(Br)cn3n2)no1	–	inactive: 15.3%
O=C(Cn1cnc2c(cnn2-c2ccccc2)c1=O)NC1CCCC1	inconclusive: 14.6 µM [activator, partial curve, poor fit]	–
COC(=O)c1ccccc1NC(=O)COC(=O)c1ccco1	–	inactive: -0.0894%
COc1ccc2c(c1)CCC1C2=NN(/C(C)=C\C(C)=O)C1c1ccc(F)cc1 (configuration not stated)	inconclusive: 20.6 µM [activator, single point]	–
O=C(Oc1cccc(OC(=O)c2ccco2)c1)c1ccco1	–	inactive: -2.78%
O=C(NCC1CCCO1)c1ccc2c(=O)n(Cc3ccc(Cl)cc3)c(=S)[nH]c2c1 (configuration not stated)	inconclusive: 29.1 µM [activator, single point]	–
O=C(CSc1nc2ccc(Cl)cc2[nH]1)Nc1ccc2[nH]c(=O)[nH]c2c1	–	inactive: 6.37%
CCN(CC(=O)NCc1ccc(F)cc1)Cc1cc(=O)n2ccsc2n1	–	inactive: 4.38%
COc1ccc2c(c1)C(=O)c1ccccc1CO2	inconclusive: 25.9 µM [activator, single point]	–
Cc1ccc(C)n1-c1ccc(C(=O)Nc2ccccc2F)cc1	inconclusive: 16.4 µM [activator, partial curve]	–
COc1ccc(NC(=O)/C=C/c2ccccc2)c([N+](=O)[O-])c1	inconclusive: 4.11 µM [activator, full curve, poor fit]	–
COc1ccc(C(C[N+](=O)[O-])c2c(C)cc3ccccn23)c(OC)c1 (configuration not stated)	inconclusive: 16.4 µM [activator, partial curve, poor fit]	–
CC(=O)Nc1ccc(NC(=O)C(C)OC(=O)/C(C#N)=C/c2ccc(N(C)C)cc2)cc1 (configuration not stated)	active: 18.3 µM	–
CCOC(=O)c1c(C)oc2c1cc(O)c1ccccc12	inconclusive: 18.4 µM [activator, partial curve, poor fit]	–
O=C(CSc1nnc(NC(=O)c2ccccc2)s1)NCc1ccco1	inconclusive: 3.66 µM [activator, single point]	–
Cc1nn(C)c(C(=O)NNC(=S)Nc2ccc(F)cc2)c1[N+](=O)[O-]	–	inactive: -1.72%
COc1ccccc1S(=O)(=O)Cc1ccc(C(=O)N2CCN(c3ccccc3)CC2)o1	–	inactive: -6.87%
CC(=O)/C(N=Nc1cccc(C(F)(F)F)c1)=C(\C)O	–	inactive: -3.83%
Cc1cc(C)c(NC(=O)COC(=O)c2ccncc2)c(C)c1	–	inactive: -1.42%
N#Cc1cc2c(nc1SCC(=O)Nc1nccs1)CCCCC2	active: 0.116 µM	–
CCOc1ccc(CCNC(=O)COc2cc(=O)n(C)c3ccccc23)cc1OCC	inconclusive: 20.6 µM [activator, single point]	–
Cc1cnc(NC(=O)COc2ccccc2)s1	inconclusive: 10.3 µM [activator, partial curve, poor fit]	–
CCc1ccc(NC(=O)Cn2nc(C(=O)O)c3ccccc3c2=O)cc1	–	inactive: 1.04%
O=C(NCCN1C(=O)C2C3C=CC(C3)C2C1=O)Nc1ccc(Br)cc1 (configuration not stated)	active: 8.2 µM	–
